# Inconclusive results and toxic doses are left out. A number of entries come with more than one value. Only these are listed. The source may hold further records. Results that share an entry differ for a reason that is not stated; some may be repeats, others may stem from another dose, organism or construct than stated.
# Test system: L1210 leukemia ip in BDF1 mice, survival T/C
# Experiment: NCI In Vivo Anticancer Drug Screen. Data for tumor model L1210 Leukemia (intraperitoneal) in B6D2F1 (BDF1) mice
# Details: endpoint: mean survival time, higher = longer survival
SMILES,"T/C (dose: 12.5 mg/kg/injection, schedule: Q01DX001 (ip), vehicle: saline)","T/C (dose: 200.0 mg/kg/injection, schedule: Q01DX009 (ip), vehicle: other)"
COCCOC1=C(N2CC2)C(=O)C(OCCOC)=C(N2CC2)C1=O,122 % of control and 151 % of control,–
COC(=O)c1cn2c(c1C(=O)OC)CCC2,–,"93 % of control, 108 % of control, 459 % of control"

# Reference: PubChem BioAssay AID248 (DTP/NCI, 2004)
